The assay concerns the target UNMODIFIED-SARS-CoV-2 Spike Protein (RBD)(R319-F541).mmH (SARS-CoV-2). The assay is described as follows: Luminex bead binding, antibody supernatant. Conditions: remark: other sources report otherwise.

B1: mAb10985 (antibody)
heavy: EVQLVESGGGLVQPGRSLRLSCAASGFTFDDYAMHWVRQAPGKGLEWVSGISWNRGSIGYADSVKGRFTISRDNAKNSLYLQMSSLRAEDTALYYCAKDGERWDSVVVPSARNGMDVWGQGTTVTVSS[human IgG1 constant region left out]
light: QSVLTQPPSVSGAPGQRVTISCTGSSSNIGAGYDVHWYQQLPGTAPKLLIYGNSNRPSGVPDRFSGSKSGTSASLAITGLQAEDEADYYCQSYDSSLSGSYVFGTGTKVTVLGQPKAAPSVTLFPPSSEELQANKATLVCLISDFYPGAVTVAWKADSSPVKAGVETTTPSKQSNNKYAASSYLSLTPEQWKSHRSYSCQVTHEGSTVEKTVAPTECS
B1 came in with a binding signal (MFI) of 27400 MFI.

B2: mAb10982 (antibody)
heavy: EVQLVESGGGLVQPGGSLRLSCAASGLTVSSNYMSWVRQAPGKGLEWVSVIYSGGTTYYADSVKGRFTISRHNSKNTLSLQMNSLRAEDTAVYYCARGEGANYYGMDVWGQGTTVTVSS[human IgG1 constant region left out]
light: QSVLTQPPSVSGAPGQRVTISCTGSSSNIGTGYDVHWYQQLPGTAPKLLIYGNSNRPSGVPDRFSGSKSGTSASLAITGLQAEDEADYYCQSYDSSLSGYVVFGGGTKLTVLGQPKAAPSVTLFPPSSEELQANKATLVCLISDFYPGAVTVAWKADSSPVKAGVETTTPSKQSNNKYAASSYLSLTPEQWKSHRSYSCQVTHEGSTVEKTVAPTECS
B2 registered a binding signal (MFI) of 27500 MFI.

B3: mAb10989 (antibody)
heavy: QVQLVQSGAEVKKPGASVKVSCKASGYIFTGYYMHWVRQAPGQGLEWMGWINPNSGGANYAQKFQGRVTLTRDTSITTVYMELSRLRFDDTAVYYCARGSRYDWNQNNWFDPWGQGTLVTVSS[human IgG1 constant region left out]
light: QSALTQPASVSGSPGQSITISCTGTSSDVGTYNYVSWYQQHPGKAPKLMIFDVSNRPSGVSDRFSGSKSGNTASLTISGLQAEDEADYYCSSFTTSSTVVFGGGTKLTVLGQPKAAPSVTLFPPSSEELQANKATLVCLISDFYPGAVTVAWKADSSPVKAGVETTTPSKQSNNKYAASSYLSLTPEQWKSHRSYSCQVTHEGSTVEKTVAPTECS
The molecule B3 registered a binding signal (MFI) of 19700 MFI.

B4: mAb10939 (antibody)
heavy: EVQLVESGGGLVQPGGSLRLSCAASGLTVSSNYMNWVRQVPGKGLEWVSVIYSGGSKFYVDSVKGRFTISRHNSKNTLYLQMNSLRPEDTAVYYCTRDAQYYGMDVWGQGTTVTVSS[human IgG1 constant region left out]
light: DIQMTQSPSSLSASVGDRVTITCRASQSISTYLHWYQQKPGEAPKLLIYAASSLQSGVPSRFSGSGSGTDFTLTISSLQPEDFATYYCQQSYSTPPEIFGQGTKLEIKRTVAAPSVFIFPPSDEQLKSGTASVVCLLNNFYPREAKVQWKVDNALQSGNSQESVTEQDSKDSTYSLSSTLTLSKADYEKHKVYACEVTHQGLSSPVTKSFNRGEC
The molecule B4 gave a binding signal (MFI) of 33600 MFI.

B5: mAb10998 (antibody)
heavy: EVQLVESGGGLVHPGGSLRLSCAASGLTVSSNYMSWVRQAPGKGLEWVSVIYSGGSTYYADSVKGRFTISRHNSKNTLFLQMNSLRAEDTAVYYCARDRPITGTTLDVWGQGTTVTVSS[human IgG1 constant region left out]
light: DIQMTQSPSSLFASVGDRVTITCRASQSISSYLNWYQQKPGKAPKLLIYAASSLQSGVPSRFSGSGSGTDFTLTISSLQPEDFAFYYCQQTYSTPPITFGQGTRLEIKRTVAAPSVFIFPPSDEQLKSGTASVVCLLNNFYPREAKVQWKVDNALQSGNSQESVTEQDSKDSTYSLSSTLTLSKADYEKHKVYACEVTHQGLSSPVTKSFNRGEC
In turn, B5 came in with a binding signal (MFI) of 2560 MFI.

B6: mAb11006 (antibody)
heavy: EVQLVESGGGLVQPGGSLRLSCAASGFIVSRNYMSWVRQAPGKGLEWVSVIYSGGSTFYADSVKGRFTISRHNSKNTLYLQMNSLKAEDTAVYYCARELRGYFDYWGQGTLVTVSS[human IgG1 constant region left out]
light: DIQLTQSPSFLSASVGDRVTITCWASQGISSYLAWYQQKPGKAPKLLIYAASTLQSGVPSRFSGSGSGTEFTLTISSLQPEDFATYYCQLLNSYPYTFGQGTKLEIKRTVAAPSVFIFPPSDEQLKSGTASVVCLLNNFYPREAKVQWKVDNALQSGNSQESVTEQDSKDSTYSLSSTLTLSKADYEKHKVYACEVTHQGLSSPVTKSFNRGEC
With B6, the binding signal (MFI) stood at 2040 MFI.

B7: mAb11008 (antibody)
heavy: EVQLVESGGGLVQPGGSLRLSCAASGFTVSSNYMTWVRQAPGKGLEWVSVIYSGGSTFYADSVKGRFTISRHNSENTLYLQMNSLRAEDTAVYYCARDLAAAGTDYWGQGALVTVSS[human IgG1 constant region left out]
light: DIQLTQSPSFLSASVGDRVTITCWASQGISSYLAWYQQKPGKAPKLLIYAASTLQSGVPSRFSGSGSGTEFTLTISSLQPDDFATYYCQHLNSYLYTFGQGTKLEIKRTVAAPSVFIFPPSDEQLKSGTASVVCLLNNFYPREAKVQWKVDNALQSGNSQESVTEQDSKDSTYSLSSTLTLSKADYEKHKVYACEVTHQGLSSPVTKSFNRGEC
Regarding B7, the binding signal (MFI) turned out to be 7100 MFI.

B8: mAb10965 (antibody)
heavy: EVQLVESGGGLIQPGGSLRLSCAASVFTVSYNYMSWVRQAPGKGLEWVSVIYSGGSTYYADSVKGRFTISRDNSKNTLYLQMNSLRAEDTAVYYCARALPGWGGSFEYFDYWGQGTLVTVSS[human IgG1 constant region left out]
light: [about 100 residues left out][about 100 residues left out]
Consider B8, for which the binding signal (MFI) was found to be 28100 MFI.

B9: mAb10915 (antibody)
heavy: EVQLVESGGGLVQPGGSLRLSCAASGFTVSSNYMNWVRQAPGKGLEWVSVIYSGGSTFYADSVKGRFTISRHNSKNTLYLQMNSLRPEDTAVYYCARDLGGYFDYWGQGTLVTVSS[human IgG1 constant region left out]
light: [about 100 residues left out][about 120 residues left out]
The molecule B9 displayed a binding signal (MFI) of 36700 MFI.

B10: mAb10984 (antibody)
heavy: EVQLVESGGGLVQPGGSLRLSCAASGLTVNRNYMSWVRQAPGKGLEWVSLIYSGGSTYYADSVKGRFTISRDNSKNTLYLQMNSLRLEDTAVYYCARGELGIPYGMDVWGQGTTVTVSS[human IgG1 constant region left out]
light: QSVLTQPPSVSAAPGQKVTISCSGSSSNIGNNYVSWYQQLPGTAPKLLIYDNNKRPSGIPDRFSGSKSGTSATLGITGLQTGDEADYYCGTWDSSLSAGVFGGGTKLTVLGQPKAAPSVTLFPPSSEELQANKATLVCLISDFYPGAVTVAWKADSSPVKAGVETTTPSKQSNNKYAASSYLSLTPEQWKSHRSYSCQVTHEGSTVEKTVAPTECS
B10 displayed a binding signal (MFI) of 25800 MFI.

B11: mAb10971 (antibody)
heavy: EVQLVESGGGLIQPGGSLRLSCAASGVTVSSNYMSWVRQAPGKGLEWVSVIYSGGSTFYSDSVKGRFSISRDNSKNTLYLQMNSLRAEDTAVYYCARDLYYYGMDVWGQGTTVTVSS[human IgG1 constant region left out]
light: DIQLTQSPSFLSASVGDRVTITCRASQGISTYLAWYQQKPGKAPKLLIYAASTLQSGVPSRFSGSGSGTEFTLTISSLQPEDFATYYCQQLDSYPGLTFGGGTKVEIKRTVAAPSVFIFPPSDEQLKSGTASVVCLLNNFYPREAKVQWKVDNALQSGNSQESVTEQDSKDSTYSLSSTLTLSKADYEKHKVYACEVTHQGLSSPVTKSFNRGEC
In turn, B11 had a binding signal (MFI) of 27400 MFI.

Values taken from US20260234738A1.
